PubChem BioAssay AID1347428 (National Center for Advancing Translational Sciences (NCATS), 2020)
In all, about 91,000 compounds went through this assay and about 290 (0.32%) were called active. Inconclusive results, whose numbers are uncertain, are shown with a selection of clear calls. Calls come from the whole dose curve; as a rule, active = well fitted inhibition curve with a large enough effect; inconclusive = small, poorly fitted or top-dose-only effect; inactive = no such curve, though single readings can be large or run the other way. Potencies beside an inconclusive call are fits to weak or partial responses and may not hold up.

Biological target: Single-stranded DNA cytosine deaminase (Homo sapiens) (UniProt Q9GZX7)
Sequence of UniProt Q9GZX7 (Q9GZX7 whole entry, looked up): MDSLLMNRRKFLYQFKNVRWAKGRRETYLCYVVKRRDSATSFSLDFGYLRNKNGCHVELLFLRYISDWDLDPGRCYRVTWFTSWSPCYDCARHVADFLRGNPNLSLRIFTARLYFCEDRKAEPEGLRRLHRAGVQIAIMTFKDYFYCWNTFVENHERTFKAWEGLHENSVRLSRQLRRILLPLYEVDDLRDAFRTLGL
Assay: Primary qHTS assay for inhibitors of Activation Induced Cytidine Deaminase (AID): AID signal; note: nearly all actives have a fitted effect of over 25% in size
Settings: AID deamination FRET fluorescence, UDG-coupled, 4 h; activity change, negative = inhibition: at 115 µM (top of the series)
% is set by controls: 0 for no effect and ±100 for the full control effect; potency is the fitted concentration of half-maximal effect; tags give direction and shape of the fitted curve.

Row | Compound | Potency | activity change, negative = inhibition
1 | Cc1cc(N2CCCCCC2)n2nc(Cc3ccc(Cl)cc3)nc2n1 | inconclusive: 56.2 µM [inhibitor, partial curve, poor fit] | –
2 | Cc1ccc(Nc2nnc(-c3ccc(C)c(S(=O)(=O)N4CCOCC4)c3)c3ccccc23)c(C)c1 | inconclusive: 14.1 µM [inhibitor, full curve, poor fit] | –
3 | COc1ccc(Cl)cc1C(=O)NCCN1CCCCC1 | – | inactive: 2.29%
4 | Cn1c(=O)c2c(nc(NCc3ccccc3)n2Cc2cccc(Br)c2)n(C)c1=O | – | inactive: -23.4%
5 | CCN(CC)S(=O)(=O)c1cccc(NC(=S)Nc2ccc(C)c(C)c2)c1 | – | inactive: -7.45%
6 | Cc1noc(/C=C/c2ccccc2F)c1S(=O)(=O)N1CCC(C(=O)N(C)Cc2ccco2)CC1 | inconclusive: 15.8 µM [inhibitor, full curve, poor fit] | –
7 | Nc1c(-c2nc(-c3ccncc3)no2)nnn1CC(=O)Nc1ccccc1 | inconclusive: 100 µM [inhibitor, single point] | –
8 | COc1ccc2nc(NC(=O)c3cc(=O)c4ccccc4o3)sc2c1 | inconclusive: 28.2 µM [inhibitor, full curve, poor fit] | –
9 | Cc1cccc(N2CCN(S(=O)(=O)c3ccc(-c4cnc(C5CC5)o4)cc3)CC2)c1C | inconclusive: 50.1 µM [inhibitor, partial curve, poor fit] | –
10 | CCCCN(C)C(=O)Cn1c(=O)n(Cc2ccc3c(c2)OCO3)c(=O)c2sccc21 | – | inactive: 3.84%
11 | COc1ccc(N(Cc2cccs2)C(=O)c2ccco2)cc1 | inconclusive: 20 µM [inhibitor, full curve, poor fit] | –
12 | O=C(Cc1csc(-c2cccs2)n1)NCc1ccc(F)cc1 | – | inactive: 47.4%
13 | CC(=O)c1ccc(N2CCN(C(=O)c3cn(C)c(=O)c4c3c3ccccc3n4C)CC2)cc1 | inconclusive: 50.1 µM [inhibitor, partial curve, poor fit] | –
14 | Nc1cccc(C(=O)/C=C/c2ccc(Cl)cc2Cl)c1 | inconclusive: 44.7 µM [inhibitor, partial curve, poor fit] | –
15 | COc1ccccc1OCC(=O)N(Cc1ccco1)Cc1ccccc1F | inconclusive: 50.1 µM [inhibitor, partial curve, poor fit] | –
16 | O=c1cc(COc2ccc(Cl)cc2Cl)nc2scc(-c3ccccc3)n12 | – | inactive: 7.65%
17 | Cc1ccc(OC(C)C(=O)Nc2ccc3nsnc3c2)cc1C (stereo unspecified) | – | inactive: 29.1%
18 | CCOC(=O)c1c(C)[nH]c(CCC(=O)Nc2cc(Cl)ccc2OC)c1C | inconclusive: 89.1 µM [inhibitor, single point] | –
19 | COc1ccc(S(N)(=O)=O)cc1NC(=O)c1[nH]c(C)c(C(C)=O)c1C | – | inactive: -2.2%
20 | CCOC(=O)c1c(C)oc2ccc(N(C(=O)c3ccncc3)S(=O)(=O)c3ccc(CC)cc3)cc12 | inconclusive: 39.8 µM [inhibitor, partial curve, poor fit] | –
21 | O=C1C(SCCO)=C(SCCO)C(=O)c2ccccc21 | active: 11.2 µM | –
22 | CCn1c(=O)c2cc(C(=O)Nc3cc(OC)c(OC)c(OC)c3)sc2c2ccccc21 | inconclusive: 50.1 µM [inhibitor, partial curve, poor fit] | –

Row | Compound | Potency | activity change, negative = inhibition
23 | CC1=C(C(=O)Nc2ccccc2C)C(c2ccncc2)n2nc(SCc3ccccc3Cl)nc2N1 (stereo unspecified) | inconclusive: 35.5 µM [inhibitor, partial curve, poor fit] | –
24 | CC(=O)c1cccc(NC(=O)CN2C=NS(=O)(=O)c3ccc(C)cc32)c1 | inconclusive: 100 µM [inhibitor, single point] | –
25 | CCCc1cc(=O)n2[nH]c(NC(=O)c3ccc(C(C)(C)C)cc3)nc2n1 | inconclusive: 39.8 µM [inhibitor, partial curve] | –
26 | COc1ccc(C(=O)Nc2nc3nc(C)c(Cc4ccccc4)c(=O)n3[nH]2)cc1OC | inconclusive: 50.1 µM [inhibitor, partial curve, poor fit] | –
27 | CC(C)c1ccc(S(=O)(=O)c2nnn3c2nc(N2CCN(C)CC2)c2sccc23)cc1 | active: 17.8 µM | –
28 | CN(Cc1ccccc1)c1oc(/C=C/c2ccc(F)cc2)nc1C#N | – | inactive: -8.15%
29 | COc1cccc(CN2C(=O)c3ccccc3Sc3ccc(C(=O)N(C)Cc4ccccc4)cc32)c1 | inconclusive: 25.1 µM [inhibitor, full curve, poor fit] | –
30 | COc1ccccc1NC(=O)c1cc2ccc3cccnc3c2[nH]1 | inconclusive: 39.8 µM [inhibitor, single point] | –
31 | CC(C)C(C)NC(=O)CSc1ccc2ccccc2n1 (stereo unspecified) | – | inactive: 1.29%
32 | CCc1ccc(NC(=O)c2sc3ncnc(N(C)C4CCCCC4)c3c2C)cc1 | – | inactive: -11.7%
33 | COc1cc(Nc2nc(SCC(=O)c3ccc(Br)cc3)nc3ccccc23)cc(OC)c1 | inconclusive: 56.2 µM [inhibitor, partial curve, poor fit] | –
34 | O=C(CC1N=C2c3ccccc3N=C(SCc3cccc(Cl)c3)N2C1=O)NCc1ccc2c(c1)OCO2 (stereo unspecified) | inconclusive: 7.08 µM [inhibitor, full curve, poor fit] | –
35 | N#C/C(=C\c1ccc(-c2ccc(C(=O)O)cc2)o1)C(=O)Nc1ccccc1C(=O)O | inconclusive: 56.2 µM [inhibitor, partial curve, poor fit] | –
36 | Cc1cccc(NC(=O)Cc2nc(-c3ccccc3)oc2C)n1 | – | inactive: -2.09%
37 | Cc1ccc(Cc2c(C)nc3nc(SCC(=O)NC4CCC(C)CC4)nn3c2C)cc1 (stereo unspecified) | inconclusive: 56.2 µM [inhibitor, partial curve, poor fit] | –
38 | COc1ccc(-c2cn(-c3ccc(C)cc3)c(S(=O)(=O)CC(=O)Nc3ccc(F)cc3)n2)cc1 | inconclusive: 15.8 µM [inhibitor, full curve, poor fit] | –
39 | CCOc1ccccc1NC(=O)N1CC(CC)Oc2ccccc21 (stereo unspecified) | inconclusive: 28.2 µM [inhibitor, full curve] | –
40 | Fc1ccc(NC(=S)NC2CC2)cc1Cl | – | inactive: 8.94%
41 | CC(=O)c1cccc(NC(=O)c2oc3c(c2C)-c2nn(Cc4ccc(Cl)cc4)cc2CC3)c1 | inconclusive: 100 µM [inhibitor, partial curve, poor fit] | –
42 | CN(Cc1ccccc1)S(=O)(=O)c1nnc(NC(=O)c2cccc(Cl)c2)s1 | inconclusive: 50.1 µM [inhibitor, partial curve, poor fit] | –
43 | CCCCC(CC)C(=O)Nc1c(F)c(F)c(F)c(F)c1F (stereo unspecified) | – | inactive: 0.673%
44 | CCOc1ccc(N(CC)S(=O)(=O)c2cc(Br)cc3c2N(C(C)=O)C(C)C3)cc1 (stereo unspecified) | inconclusive: 20 µM [inhibitor, full curve] | –

Row | Compound | Potency | activity change, negative = inhibition
45 | COc1ccc(S(=O)(=O)c2cnc3ccc(Cl)cc3c2N2CCCCC2C)cc1 (stereo unspecified) | inconclusive: 79.4 µM [inhibitor, partial curve] | –
46 | CC1CCCc2sc3nc(SCC(=O)c4ccc(Br)cc4)nc(N)c3c21 (stereo unspecified) | inconclusive: 28.2 µM [inhibitor, full curve] | –
47 | Nc1c(Cl)cc(C23CC4CC(CC(C4)C2)C3)cc1Cl | – | inactive: -13%
48 | O=C(NCCc1ccccc1)c1nc(-c2ccc(Cl)cc2)n2c1CCCCC2 | inconclusive: 31.6 µM [inhibitor, partial curve, poor fit] | –
49 | O=C(c1cnn(-c2ccc(F)cc2)c1-n1cccc1)N1CCN(c2ccc(F)cc2)CC1 | – | inactive: -15%
50 | O=Cc1cc(Cc2ccccc2Cl)cc(Br)c1O | active: 35.5 µM | –
51 | CCCCNc1oc(/C=C/c2ccc(OCC)cc2)nc1C#N | – | inactive: -4.06%
52 | COc1ccc(C2=NC(c3ccncc3)=Nc3ccc(OC)cc3N2)cc1 | – | inactive: -12.9%
53 | Cc1cc(C)nc(Nc2nc(-c3ccccc3)c3ccccc3n2)n1 | – | inactive: -3.33%
54 | CC(=O)c1cccc(NC(=S)NNC(=O)c2ccc(-c3ccccc3)cc2)c1 | – | inactive: 0.997%
55 | COc1ccc(CC(=O)NCC(c2cccs2)S(=O)(=O)c2ccc(C)cc2)cc1 (stereo unspecified) | – | inconclusive: -31.4% [inhibitor]
56 | CCOC(=O)c1c(NC(=O)c2cc(-c3cccc(OC)c3)on2)sc2c1CCCC2 | inconclusive: 28.2 µM [inhibitor, partial curve, poor fit] | –
57 | NC(CO)C(=O)NNCc1ccc(O)c(O)c1O (stereo unspecified) | inconclusive: 50.1 µM [inhibitor, partial curve] | –
58 | COc1ccc(/C=C/C(=O)Nc2nc3n(n2)C(c2ccc(F)cc2)C=C(c2ccccc2)N3)cc1 (stereo unspecified) | inconclusive: 89.1 µM [inhibitor, single point] | –
59 | COc1ccccc1NC(=O)CSc1nc(-c2ccc(C(C)(C)C)cc2)c(C#N)c(=O)[nH]1 | inconclusive: 56.2 µM [inhibitor, partial curve, poor fit] | –
60 | Cc1cccc(N2CCN(CCNC(=O)Nc3ccc(Cl)cc3)CC2)c1C | inconclusive: 112 µM [inhibitor, partial curve, poor fit] | –
61 | CCOc1ccc(NC(=O)c2ccc3c(c2)NC(=O)CS3)cc1 | – | inactive: 3.28%
62 | CCc1ccc(C(=O)c2cn(CC(=O)Nc3ccc4c(c3)OCO4)c3ccc(OC)cc3c2=O)cc1 | inconclusive: 79.4 µM [inhibitor, partial curve, poor fit] | –
63 | COc1cc(NC(=O)c2cccc3c2C(=O)N(C2CCCCC2)C3)cc(OC)c1OC | inconclusive: 25.1 µM [inhibitor, partial curve, poor fit] | –
64 | CC(C)C(=O)NC(Nc1cccc2ccccc12)C(Cl)(Cl)Cl (stereo unspecified) | inconclusive: 50.1 µM [inhibitor, partial curve, poor fit] | –
65 | CCOc1ccc(Nc2cc(C)nc3ccc(Cl)cc23)cc1 | – | inactive: 0.516%
66 | CCCOc1cccc(C(=O)Nc2cccc3cccnc23)c1 | inconclusive: 100 µM [inhibitor, partial curve, poor fit] | –
